The values that follow come from PMC4336329 (PLoS ONE, 2015).

Screen size: about 310,000 compounds; about 2,200 (0.71%) showed an effect of 50% or more. Effects have a minus sign here. This is one part of the list.

human ether-à-go-go-related gene (hERG) potassium channel, sequence (Q12809 whole entry, looked up): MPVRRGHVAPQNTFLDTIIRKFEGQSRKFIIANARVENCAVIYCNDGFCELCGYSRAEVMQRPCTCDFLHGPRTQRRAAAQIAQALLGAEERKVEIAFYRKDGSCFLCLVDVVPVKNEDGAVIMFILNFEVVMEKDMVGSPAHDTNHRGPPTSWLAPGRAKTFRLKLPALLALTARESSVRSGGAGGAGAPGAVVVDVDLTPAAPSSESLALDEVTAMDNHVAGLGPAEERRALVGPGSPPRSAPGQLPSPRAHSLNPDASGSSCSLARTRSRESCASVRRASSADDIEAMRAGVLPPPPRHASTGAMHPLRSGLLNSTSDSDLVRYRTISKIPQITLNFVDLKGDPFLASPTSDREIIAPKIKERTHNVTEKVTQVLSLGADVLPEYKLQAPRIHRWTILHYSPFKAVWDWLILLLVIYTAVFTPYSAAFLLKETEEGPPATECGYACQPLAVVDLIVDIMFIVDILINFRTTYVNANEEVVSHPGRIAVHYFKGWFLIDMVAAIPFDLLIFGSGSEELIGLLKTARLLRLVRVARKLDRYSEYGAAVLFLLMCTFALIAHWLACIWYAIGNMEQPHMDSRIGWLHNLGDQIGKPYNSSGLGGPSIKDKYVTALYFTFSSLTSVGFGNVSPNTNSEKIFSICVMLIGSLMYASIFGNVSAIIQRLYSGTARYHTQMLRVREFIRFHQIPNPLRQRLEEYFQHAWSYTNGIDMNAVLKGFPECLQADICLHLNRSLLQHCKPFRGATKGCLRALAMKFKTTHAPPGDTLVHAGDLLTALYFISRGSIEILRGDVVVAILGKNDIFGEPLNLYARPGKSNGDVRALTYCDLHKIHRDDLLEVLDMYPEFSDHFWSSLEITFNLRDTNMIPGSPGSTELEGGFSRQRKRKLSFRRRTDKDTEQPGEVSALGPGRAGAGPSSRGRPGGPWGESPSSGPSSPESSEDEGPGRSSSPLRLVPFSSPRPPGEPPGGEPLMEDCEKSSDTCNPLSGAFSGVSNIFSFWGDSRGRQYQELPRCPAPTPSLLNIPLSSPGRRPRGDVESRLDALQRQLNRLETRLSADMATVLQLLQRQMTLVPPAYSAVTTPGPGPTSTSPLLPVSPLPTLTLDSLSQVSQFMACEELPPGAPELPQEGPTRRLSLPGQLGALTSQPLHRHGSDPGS

The test has as its target human ether-à-go-go-related gene (hERG) potassium channel (human, UniProt Q12809). Put plainly: primary screen, population patch clamp on CHO cells stably expressing hERG.
Regarding `CCCN(CCC)Cc1c(C(=O)N/N=C/c2ccco2)nnn1-c1nonc1N`, the “hERG current change (%, negative = inhibition) at 1uM” value is on record as 9.02%.

For `CC(=O)Nc1cccc(-c2cc(-c3c(Cl)cccc3Cl)no2)c1`, the “hERG current change (%, negative = inhibition) at 1uM” value is reported as 10%.

With `Cc1ccsc1/C=N/NC(=O)Cc1ccc(Cl)cc1`, the “hERG current change (%, negative = inhibition) at 1uM” value was determined as 7.37%.

In the case of `O=C(O)/C=C/C(=O)Nc1ccccc1C(=O)Nc1ccccc1`, the “hERG current change (%, negative = inhibition) at 1uM” value was 14.9%.

Take `COc1ccc(NC(=O)CN2c3cccc4cccc(c34)S2(=O)=O)cc1`: the “hERG current change (%, negative = inhibition) at 1uM” value was 18.7%.

As to `COc1ccc(CC(=O)OCc2cc3ccc(C)cc3[nH]c2=O)cc1`, the “hERG current change (%, negative = inhibition) at 1uM” value is 15.2%.

With `Nc1nc2ccccc2n1/N=C/c1ccc([N+](=O)[O-])s1`, the “hERG current change (%, negative = inhibition) at 1uM” value was 4.64%.

With `CCOc1cc(/C=N/NC(=O)CN2CCCCC2)ccc1OCc1cccc(Cl)c1`, the “hERG current change (%, negative = inhibition) at 1uM” value turned out to be 12.3%.

With `CCOC(=O)N1C(=O)[C@](CC)(c2ccccc2)N1C(=O)OCC`, the “hERG current change (%, negative = inhibition) at 1uM” value was 10.7%.

`CCc1ccc(NS(=O)(=O)c2ccc(OC)c3ncccc23)cc1`: the “hERG current change (%, negative = inhibition) at 1uM” value came out at 15.2%.

For `Cc1cccc(Nc2nn3c(=O)c4ccccc4nc3s2)c1`, the “hERG current change (%, negative = inhibition) at 1uM” value turned out to be 19.6%.

Consider `O=C1OC(Nc2ccc(Br)cn2)c2ccccc21` (stereo not shown), for which the “hERG current change (%, negative = inhibition) at 1uM” value turned out to be 10.6%.

Take `O=c1c2ccccc2nc(-c2ccoc2)n1CCc1ccccc1`: the “hERG current change (%, negative = inhibition) at 1uM” value came to 5.06%.

In the case of `O=C(O)c1cc2ccc3ccccc3c2oc1=O`, the “hERG current change (%, negative = inhibition) at 1uM” value came out at 19.4%.

Turning to `NC(=O)c1ccc(NC(=O)COc2ccc(-n3cnnn3)cc2)cc1`, the “hERG current change (%, negative = inhibition) at 1uM” value came to 2.15%.

For the compound `CC(NC(=O)/C=C/c1ccccc1)c1ccccc1` (stereo not shown), the “hERG current change (%, negative = inhibition) at 1uM” value was determined as 1.21%.

With `C/C(=N\NC(=O)CNC(=O)c1cccnc1)c1cccc(O)c1`, the “hERG current change (%, negative = inhibition) at 1uM” value is listed as 10.4%.

Turning to `O=C(Oc1cccc2ccccc12)c1ccco1`, the “hERG current change (%, negative = inhibition) at 1uM” value amounted to 17.3%.

As for `Cc1ccc(Cl)cc1N1CCN(C2CCCCC2NS(=O)(=O)c2ccccc2)CC1` (stereo not shown), the “hERG current change (%, negative = inhibition) at 1uM” value turned out to be 12.3%.

Take `COCCN(C(=S)Nc1ccc(OC)cc1)C1CCN(C(C)=O)CC1`: the “hERG current change (%, negative = inhibition) at 1uM” value stood at 16.4%.

For the compound `CCC(=O)c1ccc(OCC(=O)Nc2cc(S(=O)(=O)N3CCCCC3)ccc2N2CCN(CC)CC2)cc1`, the “hERG current change (%, negative = inhibition) at 1uM” value is -24.2%.

`COc1ccc(/C=N/NC(=O)CCSc2nc3ccccc3s2)cc1`: the “hERG current change (%, negative = inhibition) at 1uM” value is on record as -0.177%.

On to `CCCN(CCC)c1ncnc2nc[nH]c12`, for which the “hERG current change (%, negative = inhibition) at 1uM” value is reported as -0.384%.

Take `CCOC(=O)C1=C(CCc2ccccc2)NC(=O)NC1c1ccc(C#N)cc1` (stereo not shown): the “hERG current change (%, negative = inhibition) at 1uM” value turned out to be 12.5%.

For the compound `COC(=O)C1(C(C[N+](=O)[O-])c2ccc(C)cc2)C(=O)NCC1c1ccco1` (stereo not shown), the “hERG current change (%, negative = inhibition) at 1uM” value is reported as 11.5%.

On to `O=C(O)c1ccc(CSc2nc3ccccc3[nH]2)cc1`, for which the “hERG current change (%, negative = inhibition) at 1uM” value stood at 6.78%.

Turning to `CNc1nnc(-c2ccc(C)cc2)c2ccccc12`, the “hERG current change (%, negative = inhibition) at 1uM” value is -5.45%.

On to `COc1ccc(C(=O)Nc2ccc(C(=O)NCCc3ccccc3)cc2)cc1`, for which the “hERG current change (%, negative = inhibition) at 1uM” value amounted to 9.85%.

With `Cc1cc(NC(=O)CN2C(=O)NC(C)(c3ccc(Cl)cc3)C2=O)no1` (stereo not shown), the “hERG current change (%, negative = inhibition) at 1uM” value was determined as 25.5%.

`COc1cccc(NC(=O)C2CCCO2)c1` (stereo not shown): the “hERG current change (%, negative = inhibition) at 1uM” value was determined as 11.7%.

Consider `CCNC(=O)c1sc2cc(C)ccc2c1Cl`, for which the “hERG current change (%, negative = inhibition) at 1uM” value is 2.67%.

As to `O=S(=O)(c1ccc(Br)cc1)c1nc(-c2ccco2)oc1NCC1CCCO1` (stereo not shown), the “hERG current change (%, negative = inhibition) at 1uM” value was found to be 5.67%.

With `COc1ccccc1N1CCN(/N=C/c2cc(OC)c(OC(C)=O)c(OC)c2)CC1`, the “hERG current change (%, negative = inhibition) at 1uM” value is listed as 25.8%.

With `Cc1cccc(Nc2nc(N)nc(CCl)n2)c1C`, the “hERG current change (%, negative = inhibition) at 1uM” value amounted to 12.4%.

As for `CC(C)Cc1nnc(NC(=O)CCC(=O)NCCc2ccc(Cl)cc2)s1`, the “hERG current change (%, negative = inhibition) at 1uM” value is recorded as 24.7%.

As to `O=C(Cn1cnc2c(nnn2Cc2ccc(F)cc2)c1=O)N1CCN(c2ccccc2)CC1`, the “hERG current change (%, negative = inhibition) at 1uM” value amounted to 1.91%.

Consider `Cc1cccc(CN2CCN(C3CCCC3)C(CCO)C2)n1` (stereo not shown), for which the “hERG current change (%, negative = inhibition) at 1uM” value turned out to be 5.32%.

Take `CCOC(=O)CSc1cc(CS(C)(=O)=O)nc(-c2ccccn2)n1`: the “hERG current change (%, negative = inhibition) at 1uM” value was -8.53%.

For the compound `CCC(=O)Nc1nc2c(OC)ccc(OC)c2s1`, the “hERG current change (%, negative = inhibition) at 1uM” value was 19%.

Regarding `CC(C)(C)OC(=O)NCCCCCNC(=O)c1[nH]cnc1C(=O)Nc1ccon1`, the “hERG current change (%, negative = inhibition) at 1uM” value worked out at 6.28%.

`CC(=O)c1nnn(-c2nc(N3CCCC3)nc(N(c3ccccc3)c3ccccc3)n2)c1C`: the “hERG current change (%, negative = inhibition) at 1uM” value was found to be 7.81%.

As to `O=C1CSC(=S)N1`, the “hERG current change (%, negative = inhibition) at 1uM” value was 25.7%.

In the case of `CCN(CC)C(=O)c1nc[nH]c1C(=O)N1CCc2ccccc2C1`, the “hERG current change (%, negative = inhibition) at 1uM” value is 17.1%.

Turning to `C=CCSc1nc2c(c(=O)[nH]c(=O)n2C)n1Cc1ccc(C)cc1`, the “hERG current change (%, negative = inhibition) at 1uM” value turned out to be 14.8%.

Turning to `O=C1N/C(=C\c2ccccc2)C(O)=C1C=NCc1ccccc1`, the “hERG current change (%, negative = inhibition) at 1uM” value came out at 8.7%.

`OCCC1CN(Cc2ccccc2-c2ccco2)CCN1Cc1ccsc1` (stereo not shown): the “hERG current change (%, negative = inhibition) at 1uM” value is recorded as 2%.

Regarding `CC(C(=O)Nc1ccccc1C(F)(F)F)N1CCN(C)CC1.O=C(O)C(=O)O` (stereo not shown), the “hERG current change (%, negative = inhibition) at 1uM” value stood at 12.4%.

Consider `CN1C(=O)C(O)(CC(=O)c2cccnc2)c2ccccc21` (stereo not shown), for which the “hERG current change (%, negative = inhibition) at 1uM” value is listed as 15.2%.

As for `CCOC(=O)C1(Cc2cccc(OC)c2)CCN(Cc2ccccc2OC)CC1`, the “hERG current change (%, negative = inhibition) at 1uM” value was -18.5%.

In the case of `COc1ccc(S(=O)(=O)N2CCCCCC2)cc1C(=O)NCCOc1ccc(C)cc1`, the “hERG current change (%, negative = inhibition) at 1uM” value is given as -5.43%.

Consider `Cn1c(C(=O)NN)cc2cc(Oc3ccccc3)ccc21`, for which the “hERG current change (%, negative = inhibition) at 1uM” value came to 6.19%.

Regarding `N#Cc1c(N2CCCC(O)C2)nc(N)c2c(N)nc3c(c12)CC(=O)N3C12CC3CC(CC(C3)C1)C2` (stereo not shown), the “hERG current change (%, negative = inhibition) at 1uM” value is reported as 8.76%.

Turning to `CCn1c(SCC(=O)OCc2ccccc2)nnc1-c1ccco1`, the “hERG current change (%, negative = inhibition) at 1uM” value is given as 14.4%.

`CC(OC(=O)c1cccc(S(=O)(=O)N2CCN(C)CC2)c1)C(=O)Nc1ccc(C(N)=O)cc1` (stereo not shown): the “hERG current change (%, negative = inhibition) at 1uM” value came out at 5.38%.

Consider `CCOC(=O)C1[C@H]2C(=O)N(CCCOC)C[C@]23C=C[C@H]1O3` (stereo partly shown), for which the “hERG current change (%, negative = inhibition) at 1uM” value was 8.46%.

Take `Cc1ccc(S(=O)(=O)NCCS(=O)(=O)N2CCN(c3ccccc3)CC2)cc1`: the “hERG current change (%, negative = inhibition) at 1uM” value came out at 9.29%.

Consider `O=c1c(OC2OC(CO)C(O)C(O)C2OC2OC(CO)C(O)C(O)C2O)c(-c2ccc(O)cc2)oc2cc(O)cc(O)c12` (stereo not shown), for which the “hERG current change (%, negative = inhibition) at 1uM” value worked out at 10.8%.

On to `CCN(CC(=O)NCc1ccc(F)cc1)CC(=O)Nc1cc(S(=O)(=O)N(C)C)ccc1C`, for which the “hERG current change (%, negative = inhibition) at 1uM” value is recorded as -45.8%.
